Read counts are not given, so values of variants with three or more changes are uncertain.
B1: LINE1-mini (parent)
chain: GGCAGAGCUCAACACAGCGUGGCAAAGUGGCUGUGGCUAGACUGCC

Variants of: B1
Test: self-cleavage, relative activity (ratio to wild type); higher = more cleavage; in vitro, sequencing; the parent is a self-cleaving ribozyme

Row | Variant | self-cleavage
1 | GGCAGAGCUCAACACAGCGUGGUGAAGAGGAUGGGGCUAGACUGCA [C23U A24G U28A C31A U34G C46A] | 0.01
2 | GGCAGAGCUCAACACAGCGUGGCCAUGUGGCUGCGGCUAGACUGCC [A24C A26U U34C] | 0.09
3 | GGCAGAGCUCAACACAGCGUGGCGUAAUGGCUGUGGCUAGACUGCC [A24G A25U G27A] | 2.76
4 | GGCAGAGCUCAACACAGCGUGGCGUAUUGGCUGUGGCUAGACUGCC [A24G A25U G27U] | 0.19
5 | GGCAGAGCUCAACACAGCGUGGCGAAGUGGCUGUGGCUACACUGCU [A24G G40C C46U] | 0.11
6 | GGCAGAGCUCAACACAGCGUGGUAAAGUGGCUGUGGCUAGAAAGCC [C23U C42A U43A] | 0.46
7 | GGCAGAGCUCAACACAGCGUGGCCAAGACGCUGUGGCUAGACUGAC [A24C U28A G29C C45A] | 0.76
8 | GGCAGAGCUCAACACAGCGUGGCGAAGCGACUGUGGCUAGACUGCC [A24G U28C G30A] | 0.59
9 | GGCAGAGCUCAACACAGCGUGGUGAAGUGGCUGUGGCUAUACUCCG [C23U A24G G40U G44C C46G] | 0.07
10 | GGCAGAGCUCAACACAGCGUGGCCAAGUGGCCGUGGCUCGACUGCC [A24C U32C A39C] | 0.05
11 | GGCAGAGCUCAACACAGCGUGGCUACGUGACCGUGGCUAGACUGCC [A24U A26C G30A U32C] | 0.06
12 | GGCAGAGCUCAACACAGCGUGGUAAAUUGGGGGUGGCUAGACUGCC [C23U G27U C31G U32G] | 0.08
13 | GGCAGAGCUCAACACAGCGUGGCGAACCGGCUGUGGCUAGACUGCC [A24G G27C U28C] | 0.13
14 | GGCAGAGCUCAACACAGCGUGGCCAAGUGGCUAUGGCUUGACGGUC [A24C G33A A39U U43G C45U] | 0.01
15 | GGCAGAGCUCAACACAGCGUGGUAAAGCGGAUGUUGCUAGACUGUC [C23U U28C C31A G35U C45U] | 0.02
16 | GGCAGAGCUCAACACAGCGUGGCGAAGUUGCUGUGGCUAUACUGCC [A24G G29U G40U] | 0.17
17 | GGCAGAGCUCAACACAGCGUGGCGAAGGGGCUGAUGCUAGACUACC [A24G U28G U34A G35U G44A] | 0.03
18 | GGCAGAGCUCAACACAGCGUGGUAAAGUCGCGGUGGCUAGACUGCC [C23U G29C U32G] | 0.11
19 | GGCAGAGCUCAACACAGCGUGGGAAAGAGGCUGUUGCUCGACUGCC [C23G U28A G35U A39C] | 0.04

Row | Variant | self-cleavage
20 | GGCAGAGCUCAACACAGCGUGGGAAAGGGGCUGUUGGUAGACUGCC [C23G U28G G35U C37G] | 0.02
21 | GGCAGAGCUCAACACAGCGUGGGAAAGUGGCUGUGGCAAGACUGCA [C23G U38A C46A] | 0.17
22 | GGCAGAGCUCAACACAGCGUGGCCAAGGGGCUGUGGCUAGAAUUCC [A24C U28G C42A G44U] | 0.02
23 | GGCAGAGCUCAACACAGCGUGGCUAAGUGGCUGUGGACAGACUGCC [A24U C37A U38C] | 0.96
24 | GGCAGAGCUCAACACAGCGUGGCGAAGUGCUUGUGGCUAGACUGCC [A24G G30C C31U] | 0.55
25 | GGCAGAGCUCAACACAGCGUGGUAAAGUGGCUGUGGCUAGACCCAC [C23U U43C G44C C45A] | 0.02
26 | GGCAGAGCUCAACACAGCGUGGUAAAAUGGCAGUGGCUAGACUGCC [C23U G27A U32A] | 0.07
27 | GGCAGAGCUCAACACAGCGUGGUAAAAUGGCUGUGGCUAGACUACC [C23U G27A G44A] | 0.21
28 | GGCAGAGCUCAACACAGCGUGGUUAACUGGCUGUGGCUAGACUGCU [C23U A24U G27C C46U] | 0.8
29 | GGCAGAGCUCAACACAGCGUGGCGAAGUGGCUGUGGCAUGACUCCC [A24G U38A A39U G44C] | 0.01
30 | GGCAGAGCUCAACACAGCGUGGUAGAGUGGCUGUGACUAGAUGGCC [C23U A25G G36A C42U U43G] | 0.08
31 | GGCAGAGCUCAACACAGCGUGGCCAAGUGGCCGUGGAUAGACUGCC [A24C U32C C37A] | 0.06
32 | GGCAGAGCUCAACACAGCGUGGCCAAGUGGCUGUGGCUAGAAUGAC [A24C C42A C45A] | 0.04
33 | GGCAGAGCUCAACACAGCGUGGUAAAAUUCCUGUGGCUAUACUGCC [C23U G27A G29U G30C G40U] | 0.06
34 | GGCAGAGCUCAACACAGCGUGGUAAAGUUGCUGUGGCUUGACUCCC [C23U G29U A39U G44C] | 0.09
35 | GGCAGAGCUCAACACAGCGUGGUAAACUGGCCCUGGCUAGACUGCC [C23U G27C U32C G33C] | 0.19
36 | GGCAGAGCUCAACACAGCGUGGUAAAGUGGCUAUGGCUAGAUUGCC [C23U G33A C42U] | 0.01
37 | GGCAGAGCUCAACACAGCGUGGUAAAGUGGCUGUGGCGGUACUGCC [C23U U38G A39G G40U] | 0.09
38 | GGCAGAGCUCAACACAGCGUGGCUGAGUGGCUGUGGCUAAAGUGCC [A24U A25G G40A C42G] | 0

Row | Variant | self-cleavage
39 | GGCAGAGCUCAACACAGCGUGGUAAAGUGGCUGUGGCAAGACUCUC [C23U U38A G44C C45U] | 0.06
40 | GGCAGAGCUCAACACAGCGUGGCCAAGUGGCUGUGGCGAGACUGCG [A24C U38G C46G] | 0.03
41 | GGCAGAGCUCAACACAGCGUGGCGUGGUGGCUGUGGCUAGACUGUC [A24G A25U A26G C45U] | 2.74
42 | GGCAGAGCUCAACACAGCGUGGCGAAGUGGCUGUGUUUAGACUGCC [A24G G36U C37U] | 0.01
43 | GGCAGAGCUCAACACAGCGUGGUAAAGUGGGUGUGGCUAGCCUGCC [C23U C31G A41C] | 0.03
44 | GGCAGAGCUCAACACAGCGUGGUGAAGUGGCUGUAGCUAGACUGCC [C23U A24G G35A] | 0.16
45 | GGCAGAGCUCAACACAGCGUGGCUAGGUGGCUAUGGUUAGACUGCA [A24U A26G G33A C37U C46A] | 0.02
46 | GGCAGAGCUCAACACAGCGUGGGAAAGUGGCUGUGUCUCGACUGCC [C23G G36U A39C] | 0.08
47 | GGCAGAGCUCAACACAGCGUGGGAAAGUGGCUGUGUCUUGACUGCC [C23G G36U A39U] | 0.1
48 | GGCAGAGCUCAACACAGCGUGGUAAAGUGGCUGGGGCUUGACUGCC [C23U U34G A39U] | 0.26
49 | GGCAGAGCUCAACACAGCGUGGUAAAGUGGCUGUCGCUAGACGGCC [C23U G35C U43G] | 0
50 | GGCAGAGCUCAACACAGCGUGGUAUAGUGGCUGUAGCUAGACAGCC [C23U A25U G35A U43A] | 0.07
51 | GGCAGAGCUCAACACAGCGUGGCUAAAUGGCUGUGGCUAGAGUGUC [A24U G27A C42G C45U] | 0.1
52 | GGCAGAGCUCAACACAGCGUGGCCAAGUGGCUGUGGUUAGACCGCC [A24C C37U U43C] | 0.26
53 | GGCAGAGCUCAACACAGCGUGGCCAAGUGCCCGUGGCUAGACUGCC [A24C G30C U32C] | 0.11
54 | GGCAGAGCUCAACACAGCGUGGUAAAGUGACUGUGGCUAGAUUGCC [C23U G30A C42U] | 0.13
55 | GGCAGAGCUCAACACAGCGUGGUAAACAGGCUGUGGCUACACUGCC [C23U G27C U28A G40C] | 0.04
56 | GGCAGAGCUCAACACAGCGUGGCCAACUGGCUGUGGCUAGACUGAC [A24C G27C C45A] | 0.12
